Whole data set: some 33,000 sequences, median “E-score (-0.5 to 0.5)” near -0.032, cut for the highest 2% near 0.36. The list shows a part of the results.
target: T1, Sko1 (UniProt Q02100); assay: PBM E-score (8-mer binding enrichment) (E-score (-0.5 to 0.5)); higher = stronger / more preferred TF binding; most listed sequences are background and not binding sites; conditions: protein concentration: 200 nM; construct: GST-full length
T1 sequence: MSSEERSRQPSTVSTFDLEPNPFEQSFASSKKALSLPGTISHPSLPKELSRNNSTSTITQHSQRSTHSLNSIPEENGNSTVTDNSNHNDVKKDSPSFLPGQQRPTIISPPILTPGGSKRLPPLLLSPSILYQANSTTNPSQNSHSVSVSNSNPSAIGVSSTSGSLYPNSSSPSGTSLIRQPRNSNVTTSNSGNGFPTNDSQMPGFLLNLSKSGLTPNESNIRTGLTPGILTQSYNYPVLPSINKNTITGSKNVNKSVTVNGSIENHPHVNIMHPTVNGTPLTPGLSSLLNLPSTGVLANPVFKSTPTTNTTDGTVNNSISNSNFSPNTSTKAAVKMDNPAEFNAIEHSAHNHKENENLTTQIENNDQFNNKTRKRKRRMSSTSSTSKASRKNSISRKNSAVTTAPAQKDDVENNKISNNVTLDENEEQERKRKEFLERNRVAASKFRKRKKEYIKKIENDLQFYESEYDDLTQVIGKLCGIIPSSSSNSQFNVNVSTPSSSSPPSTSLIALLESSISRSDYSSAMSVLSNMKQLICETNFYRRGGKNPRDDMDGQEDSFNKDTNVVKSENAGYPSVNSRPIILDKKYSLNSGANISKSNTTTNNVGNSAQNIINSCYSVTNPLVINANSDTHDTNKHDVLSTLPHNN
In short: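 Detection of bound protein used fluorescent anti-GST, with scans normalised by masliner. The proteins were GST-tagged yeast transcription factors applied at about 100-200 nM to universal all-10-mer Agilent arrays made double-stranded by primer extension. Each ungapped eight-base word, pooled with its reverse complement, was scored with an E-score from the Universal PBM Analysis Suite.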

Sequence | PBM E-score
ATGACGGC | 0.285
CGAGGAAA | -0.0368
GCGCTGAC | 0.154
CTAATTCC | 0.176
AGGCGCAT | -0.158
AGTCACGG | -0.0356
CACACGCC | 0.0149
CGCTTTGC | 0.0148
GTCTTCTA | -0.0183
CAAGCGCG | -0.204
AGAAAGGG | -0.145
GGCTAATA | -0.0056
ACAAGCTG | -0.0759
CGAGATCC | -0.0847
AGGAGGTG | -0.273
ATCGAGAA | 0.142
AAGCAGTA | -0.165
CACCTAAA | 0.0921
CATGGTCA | 0.194
GCGTAGCC | 0.00349
CTGGCCGA | -0.247
GTACTGAA | 0.156
ACAATGGC | 0.076
CGGATCCC | -0.302
AGACTTGC | -0.0691

Sequence | PBM E-score
CTGGCAGC | -0.199
AGCATTTA | 0.0954
ACGCGTCC | 0.0182
GATTACCC | -0.0418
GATAGGCC | -0.247
CAAAATCG | 0.0925
ACGTCCCG | 0.0538
GACCCGAA | -0.25
CCTAAGGC | -0.153
GCGAGACA | -0.0515
CAATCATC | 0.0821
AGTTCTGG | -0.0947
ACCATGCA | 0.0137
CAATCATG | 0.0604
GATTCGCA | 0.0622
ACCGCCAT | -0.149
CTTCGCCA | -0.184
AAGCCCAC | -0.0501
CAATAATA | 0.19
CCCAAACC | -0.118
CAGCCTTA | -0.213
AAGTGGAA | -0.17
CGAACCTC | -0.0957
ACTGGGCC | -0.238
AACGGTGC | 0.0584

Sequence | PBM E-score
AGCACCGC | -0.258
AGCTGAAG | -0.192
TAGAAGCA | 0.077
AGGTGTTG | 0.0206
TCATTCAA | 0.254
GTGTCGGA | -0.157
GGAGTGAA | -0.2
AACCATAA | 0.113
ACCGCACC | -0.0449
GCAGTTTA | -0.07
CTGAGGGA | -0.253
GTACGCAA | 0.399
CCCAAGTA | -0.226
CCCGGCAC | -0.232
AATCAAGG | -0.124
CTAGCAGA | -0.0607
GGGACCTA | -0.2
AGAGTCTA | -0.0237
CGCACACG | 0.162
GTCAAGAA | 0.169
ATTGTGAC | 0.18
ATTTAAAA | 0.123
CTGTCACA | -0.0326
AAAAATTA | 0.201
GAAAGCCA | -0.0817

Sequence | PBM E-score
ATGCGTGC | 0.202
GAATGTCC | -0.22
ATGAAGAC | 0.144
AACTTTAA | 0.194
TAGCTGGA | -0.189
AAGGATCA | -0.0728
ATAAGGCA | 0.0644
GAGCGTGA | -0.175
CTCGTGGA | -0.0793
GGGAGCTA | -0.185
CGTACGCC | 0.218
ATGAGTTG | 0.043
ATGTAGAA | 0.241
CAATCAAG | -0.106
CACAGTTA | 0.0467
AAATCGCC | -0.178
CGAAAAGA | 0.163
CGAATCGA | 0.169
ACTAGGCG | 0.0705
TGCAAACA | 0.0209
GTTGTAGA | 0.0228
ATCCCGCG | 0.0257
CGTTGCTC | 0.0339
CGTGTCTC | 0.231
AAGCAGAT | -0.0347

Sequence | PBM E-score
ACGATACC | 0.0977
TGCGATAA | 0.0952
CGTACACA | 0.239
ATGTCACC | 0.268
CACTAACG | 0.062
CCTTCCTC | -0.262
GACCTGCC | -0.225
CGGTAAAA | 0.0446
GCGTGACC | 0.0101
GAATATTC | 0.149
AAGCCCAA | 0.0326
CACAGAGA | 0.0519
CAACCGGA | -0.149
CAATCTAG | 0.00998
AACGTGGC | 0.193
ACTCGGGA | -0.147
CGATCCGC | -0.0715
AGTATTAC | 0.331
ACTGAAAT | 0.0526
ATGATGTC | 0.446
CCCTCAGG | -0.294
AGTTACTG | -0.0587
AGAAATGG | -0.183
CCTGGCTA | -0.048
CAGGAGTC | -0.0908

Sequence | PBM E-score
CACAAGGC | -0.105
TGAGCTCA | 0.105
AGACTGGA | -0.112
AATGTCCG | -0.116
CATCAACA | 0.152
CACATGTG | -0.00201
AAGCGAAC | 0.136
ATACGACC | -0.00392
CGCGCTCA | 0.0185
CTGGGCTA | -0.317
CTATTTCA | 0.193
AAATCATA | 0.204
CGCCAGGA | -0.12
ACGAGCAG | -0.0309
AGCGACGG | -0.0889
ACATTGGC | -0.0747
ACCGTCGT | 0.0636
CATCTTCC | 0.142
CACCGGAC | -0.113
GGGCGAAC | -0.15
CGGGCGAA | -0.207
GTCGGTTA | -0.00798
CGGAGAGA | -0.15
CAGGATGG | -0.189
AGGCGAAA | -0.191

Sequence | PBM E-score
TAGCGATA | 0.168
AACCATGA | 0.199
CAGGTTAC | 0.0735
ATCCAACG | -0.0524
AATGCATT | 0.149
AAGGAAAC | -0.1
ACCCAGTG | -0.0197
GACGGGAC | -0.175
GAATCCAA | -0.181
ACACACTA | 0.108
ATGTCCGA | -0.185
AGTGGACC | -0.34
AATGGGGC | -0.276
CAGGGATG | -0.117
CTGTAACC | 0.0382
CGATTTAA | 0.1
CATTAAAC | 0.128
GCTCTCCC | -0.367
AAAATATT | 0.238
AAAGCATG | 0.0731
CCGGGAAA | -0.14
ATTATGCA | 0.176

Reference: the supplement of paper PMC3334620
